Experimental data: PubChem BioAssay (NCATS)
The inconclusive results got no clear call from the source; some entries with a clear call stand among them for comparison. For part of these data: A potency beside an inconclusive call is a rough fit, not a confirmed value. The source made the active and inactive calls. Unless noted, the call rests on the fitted dose curve; in most records, active means well fitted curve in the direction sought with a large enough effect; inconclusive means small, poorly fitted or top-dose-only effect, or another doubt; inactive means no such curve, though single readings can be large; an effect the other way counts as inactive or inconclusive.

Tests used:
[1] = NFAT Signaling Pathway (AID 444; active means well fitted curve in either direction with a large enough effect, not every such curve was filed as active; inconclusive means small, poorly fitted or top-dose-only effect, or another doubt;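 further: carbachol stimulus at about its EC50 of 1 µM final; on the % scale 0 is the no-effect control and ±100 the full control effect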); details: Jurkat NFAT-bla M1, carbachol, beta-lactamase ratio, 5 h; at 17.2 µM (top of the series)
In short: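 Jurkat cells carrying an NFAT-driven β-lactamase reporter and co-transfected muscarinic M1 receptor were treated with compound plus carbachol (1 uM final, an EC50 level) for 5 h at 37 °C. CCF4 loading followed for 1 h at RT; 460/530 nm ratio gave %activity.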

[2] = S16 Schwann cell PMP22 intronic element firefly luciferase assay (AID 624032); further: potency means the concentration at half of the fitted maximal effect; nearly all actives have a fitted effect of over 30% in size
In short: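 Rat S16 Schwann cells stably carrying a PMP22 intronic element-driven Fluc reporter were seeded overnight, then exposed to compounds for 24 h at 37 °C. Luminescence was normalized to PTC124 (positive control) and DMSO (0% activity).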

[3] = P-glycoprotein substrates identified in KB-8-5-11 adenocarcinoma cell line, qHTS therapeutic library screen (AID 1346987); further: on the % scale 0 is the no-effect control and ±100 the full control effect; nearly all actives have a fitted effect of over 65% in size
In short: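 KB-8-5-11, a colchicine-selected P-gp-overexpressing KB-3-1 subline, was grown without colchicine for the assay. Cells were seeded at 500 cells/well, dosed in concentration-response and incubated 72 h at 37 degree C, 5% CO2. Viability was read by CellTiter-Glo luminescence.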

[4] = qHTS of pediatric cancer cell lines to identify multiple opportunities for drug repurposing: Primary screen for SJ-GBM2 cells (AID 1347091);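 further: plate controls were DMSO neutral control for no effect and bortezomib for full effect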
In short: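 Eight- or eleven-point concentration series, 48 h treatment at 37 degrees C in growth media; readout CellTiter-Glo luminescence. Potency and efficacy were taken from the concentration-response curves.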

[5] = qHTS of pediatric cancer cell lines to identify multiple opportunities for drug repurposing: Primary screen for SK-N-MC cells (AID 1347093); details: SK-N-MC viability, CellTiter-Glo luminescence, 48 h; activity change, negative = cytotoxic: at 46 µM (top of the series);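 further: plate controls were DMSO neutral control for no effect and bortezomib for full effect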
In short: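 Metabolically active cells were quantified by ATP-dependent luminescence (CellTiter-Glo, 15 min at room temperature) following 48 h treatment. Cells had been plated at 500-1,000 per well and settled for 5 h beforehand.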

[6] = qHTS of pediatric cancer cell lines to identify multiple opportunities for drug repurposing: Primary screen for NB-EBc1 cells (AID 1347095);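 further: plate controls were DMSO neutral control for no effect and bortezomib for full effect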
In short: (§1)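 Following a 5-hour attachment period, cells at 500-1,000/well received compounds and were cultured for 48 hours. CellTiter-Glo was added and luminescence read to estimate viable, metabolically active cells.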

[7] = qHTS of pediatric cancer cell lines to identify multiple opportunities for drug repurposing: Primary screen for OHS-50 cells (AID 1347103);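 further: plate controls were DMSO neutral control for no effect and bortezomib positive control for full effect; nearly all actives have a fitted effect of over 40% in size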
In short: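 Cells (500-1,000/well) rested 5 h, then received compounds for 48 h; metabolically active cells were measured by CellTiter-Glo luminescence. Final concentrations spanned up to 46 µM (MIPE, 11-point) or 0.59 nM-46 µM (NPC, 8-point) in primary screens, 11-point in follow-ups.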

[8] = qHTS of pediatric cancer cell lines to identify multiple opportunities for drug repurposing: Primary screen for Rh41 cells (AID 1347108);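 further: luminescence drop marks cytotoxic hits; nearly all actives have a fitted effect of over 70% in size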
In short: as §1

[9] = qHTS to identify inhibitors of the type 1 interferon - major histocompatibility complex class I in skeletal muscle: primary screen against the NCATS Pharmaceutical Collection (AID 1347407); details: human skeletal muscle cells, IFN-b-induced MHC-I HiBiT luminescence, 24 h; activity change, negative = inhibition: at 45.9 µM (top of the series);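 further: luminescence of HiBiT knocked into endogenous HLA-B as interferon-induced MHC class I level; on the % scale 0 is the no-effect control and ±100 the full control effect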
In short: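 Cells were seeded with 4 ng/ml IFN-beta, incubated 1 h, then dosed with compounds over eight 1:5 steps up to 46 uM final. After 24 h at 37 C, HiBiT lytic reagent was added and luminescence read after 10 min lysis in the dark.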

[10] = Primary qHTS for inhibitors of nuclear receptor binding SET domain protein 2 (NSD2) in an RCH-ACV wild type WT cells (2C) (AID 1645877); details: activity change, negative = cell killing: at 44.9 µM (top of the series) unless noted; further: on the % scale 0 is the no-effect control and ±100 the full control effect; nearly all actives have a fitted effect of over 70% in size
AA1029 = assay: qHTS profiling for inhibitors of Plasmodium falciparum proliferation (AID 504749); further: nearly all actives have a fitted effect of over 60% in size; further: potency means the concentration at half of the fitted maximal effect;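 on activity, negative = inhibition: 0% = DMSO vehicle and full inhibition = artemisinin control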; details: P. falciparum in erythrocytes, SYBR Green DNA, 72 h; series mostly up to 28.7 µM
In short: (§2)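 Parasite proliferation within erythrocytes, 72 h exposure. Endpoint: SYBR Green I fluorescence after overnight lysis at room temperature. Controls: 0.29 uM artemisinin, DMSO.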

ATS189 = assay: as above; details: P. falciparum in erythrocytes, SYBR Green DNA, 72 h; series mostly up to 28.7 µM
In short: as §2

CP211 = assay: as above; details: P. falciparum in erythrocytes, SYBR Green DNA, 72 h; series mostly up to 28.7 µM
In short: as §2

CP215 = assay: as above; details: P. falciparum in erythrocytes, SYBR Green DNA, 72 h; series mostly up to 28.7 µM
In short: as §2

CP291 = assay: as above; details: P. falciparum in erythrocytes, SYBR Green DNA, 72 h; activity, negative = inhibition: at 28.7 µM (top of the series)
In short: as §2

CP297 = assay: as above; details: P. falciparum in erythrocytes, SYBR Green DNA, 72 h; activity, negative = inhibition: at 28.7 µM (top of the series) unless noted
In short: as §2

CP305 = assay: as above; details: P. falciparum in erythrocytes, SYBR Green DNA, 72 h; series mostly up to 28.7 µM
In short: as §2

DIV17 = assay: as above; details: P. falciparum in erythrocytes, SYBR Green DNA, 72 h; activity, negative = inhibition: at 28.7 µM (top of the series) unless noted
In short: as §2

HB3 = assay: as above; details: P. falciparum in erythrocytes, SYBR Green DNA, 72 h; series mostly up to 28.7 µM
In short: as §2

ICS = assay: as above; details: P. falciparum in erythrocytes, SYBR Green DNA, 72 h; series mostly up to 28.7 µM
In short: as §2

CRL-7250 = normal cell line; assay: Cytotoxic Profiling of Annotated Libraries Using Quantitative High-Throughput Screening (AID 1296008); details: Five cell lines viability, CellTiter-Glo ATP luminescence, 48-72 h; max response: stronger effect = lower value; further: on the % scale 0 is the no-effect control and ±100 the full control effect; nearly all actives have a fitted effect of over 60% in size
In short: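 Compounds were pin-transferred onto cells and incubated 48 or 72 hr at 37 degree Celsius, 95% humidity. CellTiter-Glo was added, plates sat 10 min at room temperature, then ATP-coupled luminescence was imaged as the viability read-out.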

OV90 = assay: Primary qHTS to identify gynecologic anti-cancer compounds using libraries of approved drugs and bioactive compounds (AID 1345084); details: Gynecologic cancer cell panel viability, ATPlite luminescence, 48 h; series mostly up to 57.5 µM; further: on the % scale 0 is the no-effect control and ±100 the full control effect; nearly all actives have a fitted effect of over 55% in size
In short: (§3)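 Five-point cytotoxicity, 48 h drug exposure at 37 C, 5% CO2, on cells seeded 16 h beforehand. ATP content read by ATPlite luminescence.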

[11] = test system: Zika virus NS2B-NS3 protease (unlinked complex); assay: Primary screen GU Rhodamine qHTS for Zika virus inhibitors: Unlinked NS2B-NS3 protease assay (AID 1347159); further: potency means the concentration at half of the fitted maximal effect; nearly all actives have a fitted effect of over 60% in size
In short: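 Compounds, tested up to 114 microM, were incubated for 15 minutes with 25 nM unlinked NS2B-NS3 protease at pH 8.0. Cleavage of 1.5 microM Rhodamine110 substrate was then followed by fluorescence for 15 minutes.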

[12] = test system: Zika virus NS2B-NS3 protease (linked construct); assay: Primary screen NINDS Rhodamine qHTS for Zika virus inhibitors (AID 1347160); details: activity change, negative = inhibition: at 57.1 µM (top of the series) unless noted; further: potency means the concentration at half of the fitted maximal effect; nearly all actives have a fitted effect of over 55% in size
In short: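 Percent inhibition, normalized to uninhibited and enzyme-free controls, is fitted to a 4-parameter Hill equation. Fluorescence change comes from a 15-min cleavage of 1.5 microM bis-peptide Rhodamine110 substrate by 25 nM linked NS2B-NS3 at room temperature.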

[13] = molecular target: Calcium and integrin-binding protein 1 (Homo sapiens) (UniProt Q99828); assay: Primary qHTS for Identification of Calcium Integrin Binding Protein 1 (CIB1) Competitor (AID 1508620); further: potency means the concentration at half of the fitted maximal effect
In short: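 Fluorescence polarization competition: CIB1-GST (1 uM final) preincubated with compound 15 min at room temperature, then FITC-labeled alphaIIb peptide (100 nM final) added for another 15 min. Polarization read at Ex 480/Em 540.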

[14] = Primary fluorescence-based thiol-reactive (MSTI) qHTS assay for identification of artifact compounds. (AID 1845221);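 further: potency means the concentration at half of the fitted maximal effect; thiol-reactive compounds lower the probe fluorescence signal; nearly all actives have a fitted effect of over 65% in size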
In short: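 Thiol-reactive compounds detected by quenching of 4 uM MSTI fluorescence (525/598 nm) after 1 h room-temperature dark incubation in PBS pH 7.4, 2% DMSO. qHTS titration; percent inhibition Hill-fitted against Acetyl-MSTI/MSTI controls.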

[15] = Primary redox qHTS assay for identification of artifact compounds. (AID 1845223); details: Amplex Red/HRP redox cycling with DTT, fluorescence; redox activity (% of DA3003): at 53.8 µM (top of the series); further: potency means the concentration at half of the fitted maximal effect
In short: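 Amplex Red (25 uM) and HRP (250 mU/mL) in HBSS, with compounds for 15 min, then 250 uM DTT for 30 min, room temperature, dark. Fluorescence 525/598 nm read; normalized to DMSO and 10 uM DA3003; Hill fit.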

PA-1 = assay: Primary qHTS to identify gynecologic anti-cancer compounds using libraries of approved drugs and bioactive compounds (AID 1345084); details: Gynecologic cancer cell panel viability, ATPlite luminescence, 48 h; series mostly up to 57.5 µM; further: on the % scale 0 is the no-effect control and ±100 the full control effect; nearly all actives have a fitted effect of over 55% in size
In short: as §3

SKOV3 = assay: as above; details: Gynecologic cancer cell panel viability, ATPlite luminescence, 48 h; series mostly up to 57.5 µM
In short: as §3

Hek293T = assay: as above; details: Gynecologic cancer cell panel viability, ATPlite luminescence, 48 h, control line for the selectivity index; activity change, negative = cytotoxicity: at 57.5 µM (top of the series) unless noted
In short: as §3
Tags describe the fitted curve by direction and shape.

UniProt Q99828, sequence (Q99828 whole entry, looked up): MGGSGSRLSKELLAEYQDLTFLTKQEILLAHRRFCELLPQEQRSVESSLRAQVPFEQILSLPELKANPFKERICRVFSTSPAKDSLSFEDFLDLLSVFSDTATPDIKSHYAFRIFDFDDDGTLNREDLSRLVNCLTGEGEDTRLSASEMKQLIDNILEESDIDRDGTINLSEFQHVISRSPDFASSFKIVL

CCn1cc(C(=O)O)c(=O)c2cnc(N3CCNCC3)nc21
inactive: Potency [3] | Potency [4] | Potency [5] | Potency [6] | Potency [7] | Potency [8] | Potency [9] | Potency [10] | Potency (AA1029) | Potency (ATS189) | Potency (CP211) | Potency (CP291) | Potency (CP297) | Potency (CP305) | Potency (DIV17) | Potency (HB3) | max response (CRL-7250) -6.3% | Potency (OV90)
active: Potency [2] 7.75 µM
inconclusive: activity change, negative = inhibition [1] -32% [inhibitor] | Potency (CP215) 8.09 µM [inhibitor, single point] | Potency (ICS) 7.08 µM [inhibitor, single point]

Cc1cc(O)cc(Oc2cc(C)c(C(=O)O)c(O)c2)c1
active: Potency [11] 14.1 µM | Potency [12] 17.8 µM | Potency [14] 3.36 µM
inactive: Potency [3] | Potency [10] | max response (CRL-7250) -27.9% | Potency (PA-1) | Potency (SKOV3)
inconclusive: Potency [13] 56.2 µM [inhibitor, partial curve, poor fit] | Potency [15] 37.7 µM [activator, single point]

C=C1CCC2C(OC(=O)C2(O)COC(C)=O)C2C(=C)C(O)CC12 (stereo unspecified)
inactive: max response (CRL-7250) -7.9% | Potency (Hek293T) | Potency (SKOV3)
inconclusive: Potency [11] 11.2 µM [inhibitor, full curve, poor fit]
